According to PMC2373926:
Results are given in words; binding and its absence hold for the method and conditions named. For some assays here: In cells and extracts the contact can be indirect. Some results given as binding are weak or reduced against the parent protein; the word gives no strength. Where a sequence is shown, tags or fusion partners need not be part of it.

B1: Flag-tagged Wild Type (WT) Bves (protein, UniProt Q9DG23 1-357)
chain: MDTTAISPLTPLGVIPDLKNATSVPFNETACENWKEIHHLVFHVANICFAAGLVIPTTLNLHMIFLRGLLTVGCALFIIWATLYRCALDIMIWNSVFLVVNLLHFIYLVYKRRPIKIEKELSSLYKRMFEPLHVPPELFQRLTGQFCNIQTLKTGQAYAAEDKTSVDDRLSILLKGKMKVSYRGHFLHNIYPCAFIDSPEFRSTQMNRGEKFQVTIIADDNCKFLCWSRERLTYFLETEPFLYEIFKYLIGKDITNKLYSLNDPTLNDKASKKIDRQPSLCSQLSVMQMRNSMASTSDSEDGLQMFLRGTSSSSSLRPGRTSPYLRTSAKMKPIEESVEDDVFEAPSAEKLELQRLP
B2: WT Bves protein devoid of glycosylation products (protein, UniProt Q9DG23 1-357)
chain: MDTTAISPLTPLGVIPDLKNATSVPFNETACENWKEIHHLVFHVANICFAAGLVIPTTLNLHMIFLRGLLTVGCALFIIWATLYRCALDIMIWNSVFLVVNLLHFIYLVYKRRPIKIEKELSSLYKRMFEPLHVPPELFQRLTGQFCNIQTLKTGQAYAAEDKTSVDDRLSILLKGKMKVSYRGHFLHNIYPCAFIDSPEFRSTQMNRGEKFQVTIIADDNCKFLCWSRERLTYFLETEPFLYEIFKYLIGKDITNKLYSLNDPTLNDKASKKIDRQPSLCSQLSVMQMRNSMASTSDSEDGLQMFLRGTSSSSSLRPGRTSPYLRTSAKMKPIEESVEDDVFEAPSAEKLELQRLP
modifications: devoid of glycosylation products (tunicamycin)
B3: Del-4 Bves (domain or fragment, UniProt Q9DG23 1-284)
chain: MDTTAISPLTPLGVIPDLKNATSVPFNETACENWKEIHHLVFHVANICFAAGLVIPTTLNLHMIFLRGLLTVGCALFIIWATLYRCALDIMIWNSVFLVVNLLHFIYLVYKRRPIKIEKELSSLYKRMFEPLHVPPELFQRLTGQFCNIQTLKTGQAYAAEDKTSVDDRLSILLKGKMKVSYRGHFLHNIYPCAFIDSPEFRSTQMNRGEKFQVTIIADDNCKFLCWSRERLTYFLETEPFLYEIFKYLIGKDITNKLYSLNDPTLNDKASKKIDRQPSLCSQL
B4: Del-5 Bves (domain or fragment, UniProt Q9DG23 1-309)
chain: MDTTAISPLTPLGVIPDLKNATSVPFNETACENWKEIHHLVFHVANICFAAGLVIPTTLNLHMIFLRGLLTVGCALFIIWATLYRCALDIMIWNSVFLVVNLLHFIYLVYKRRPIKIEKELSSLYKRMFEPLHVPPELFQRLTGQFCNIQTLKTGQAYAAEDKTSVDDRLSILLKGKMKVSYRGHFLHNIYPCAFIDSPEFRSTQMNRGEKFQVTIIADDNCKFLCWSRERLTYFLETEPFLYEIFKYLIGKDITNKLYSLNDPTLNDKASKKIDRQPSLCSQLSVMQMRNSMASTSDSEDGLQMFLRG
B5: Del-3 Bves (domain or fragment, UniProt Q9DG23 1-251)
chain: MDTTAISPLTPLGVIPDLKNATSVPFNETACENWKEIHHLVFHVANICFAAGLVIPTTLNLHMIFLRGLLTVGCALFIIWATLYRCALDIMIWNSVFLVVNLLHFIYLVYKRRPIKIEKELSSLYKRMFEPLHVPPELFQRLTGQFCNIQTLKTGQAYAAEDKTSVDDRLSILLKGKMKVSYRGHFLHNIYPCAFIDSPEFRSTQMNRGEKFQVTIIADDNCKFLCWSRERLTYFLETEPFLYEIFKYLIG

Columns and labels:
[1] = target: T1, Peptide 12 with lysine 273 substituted with alanine (UniProt Q9DG23); assay: peptide or protein array; SPOTs: 13-mer peptides fixed on a cellulose membrane; Flag-tagged Bves from transfected COS-7 cells pre-incubated with anti-Flag antibody, on the membrane three hours at room temperature, washed in TBST, HRP secondary antibody, chemiluminescence; second membrane with alanine substitutions of peptide 12 treated identically; only the target purified
T1 sequence (peptide): TLNDKASKAIDRQ

[2] = target: T2, Peptide 11 (SPOTs 13-mer of C-terminal Bves) (UniProt Q9DG23); assay: as above
T2 sequence (peptide): NDPTLNDKASKKI

[3] = target: T3, Peptide 10 (SPOTs 13-mer of C-terminal Bves) (UniProt Q9DG23); assay: as above
T3 sequence (peptide): YSLNDPTLNDKAS

[4] = target: T4, Peptide 12 with lysine 272 substituted with alanine (UniProt Q9DG23); assay: as above
T4 sequence (peptide): TLNDKASAKIDRQ

[5] = target: T5, Peptide 13 (SPOTs 13-mer of C-terminal Bves) (UniProt Q9DG23); assay: as above
T5 sequence (peptide): DKASKKIDRQPSL

[6] = target: T6, Peptide 2 (SPOTs 13-mer of C-terminal Bves) (UniProt Q9DG23); assay: as above
T6 sequence (peptide): FLETEPFLYEIFK

[7] = target: T7, Peptide 12: …; assay: as above
T7 sequence (peptide): TLNDKASKKIDRQ

GST C-terminal Bves = target: T8, GST C-terminal Bves (UniProt Q9DG23); assay: pull-down; bacterial lysates of GST fusion proteins mixed with lysates of COS-7 cells transfected with Flag-tagged Bves, overnight at 4°C; glutathione beads four hours at 4°C; washed three times with PBS; Western blot with anti-Flag
T8 sequence: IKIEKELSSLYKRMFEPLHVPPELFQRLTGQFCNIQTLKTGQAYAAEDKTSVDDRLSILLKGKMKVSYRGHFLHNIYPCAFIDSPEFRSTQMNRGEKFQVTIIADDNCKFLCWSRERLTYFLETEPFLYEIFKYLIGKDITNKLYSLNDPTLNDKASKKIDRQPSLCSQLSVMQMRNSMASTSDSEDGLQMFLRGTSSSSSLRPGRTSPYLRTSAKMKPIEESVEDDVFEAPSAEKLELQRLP

GST N-terminal Bves = target: T9, GST N-terminal Bves (UniProt Q9DG23); assay: as above
T9 sequence: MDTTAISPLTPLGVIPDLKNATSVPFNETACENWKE

Binder | binding [1] | binding [2] | binding [3] | binding [4] | binding [5] | binding [6] | binding [7] | binding (GST C-terminal Bves) | binding (GST N-terminal Bves)
B1 | no binding | binds | no binding | no binding | binds | no binding | binds | binds | no binding
B2 | – | – | – | – | – | – | – | binds | no binding
B3 | – | – | – | – | – | – | – | binds | –
B4 | – | – | – | – | – | – | – | binds | –
B5 | – | no binding | – | – | no binding | – | no binding | no binding | –
